Test results from the supplement of paper PMC9174493.
Counter-ions that a name gives are not always drawn. The list shows a part of the results. Single values of this set are uncertain. Values with irradiation are relative to irradiated vehicle.

These compounds were tested on A549-Dual (assay: ISRE reporter (Lucia luciferase) activity, viability-corrected, relative to vehicle (fold change vs vehicle); higher = more activation of STING-IRF / NF-kB immune response reporter). Details: 1 µM; irradiation: none.

SMILES	ISRE reporter
CCS(=O)(=O)O.COC(=O)c1ccc2c(c1)NC(=O)/C2=C(\Nc1ccc(N(C)C(=O)CN2CCN(C)CC2)cc1)c1ccccc1 [Nintedanib Ethanesulfonate Salt]	1.35
CCCCCCCCCCCCCCCCCCOP(=O)([O-])OC1CC[N+](C)(C)CC1 [Perifosine (KRX-0401)]	0.985
CCC1(O)CC2CN(CCc3c([nH]c4ccccc34)C(C(=O)OC)(c3cc4c(cc3OC)N(C=O)C3C(O)(C(=O)OC)C(OC(C)=O)C5(CC)C=CCN6CCC43C65)C2)C1 (configuration not stated) [Vincristine]	1.08
Cl.Nc1ccn(C2OC(CO)C(O)C2O)c(=O)n1 (configuration not stated) [Cytarabine hydrochloride]	3.08
CC(=O)OC(C)C(C)C(=O)OCC12C3CC4(C)C(=CCC5C6(C)CCC(OC7OC(C(=O)[O][Na])C(OC8OC(CO)C(O)C(O)C8O)C(O)C7OC7OCC(O)C(O)C7O)C(C)(CO)C6CCC54C)C1CC(C)(C)C(O3)C2O (configuration not stated) [Sodium Aescinate]	0.913
CCC(=O)OC1(C(=O)SCF)C(C)CC2C3CC(F)C4=CC(=O)C=CC4(C)C3(F)C(O)CC21C (configuration not stated) [Fluticasone propionate]	0.161
CCCCC1(COC(=O)CCC(=O)O)C(=O)N(c2ccccc2)N(c2ccccc2)C1=O [Suxibuzone]	1.02
CS(=O)(=O)Nc1cc2occ(NC=O)c(=O)c2cc1Oc1ccccc1 [Iguratimod]	0.796
COc1cc2nccc(Oc3ccc(NC(=O)Nc4cc(C)on4)c(Cl)c3)c2cc1OC [Tivozanib (AV-951)]	0.827
Cc1ccc(S(=O)(=O)O)cc1.NC(=O)c1cccc2cn(-c3ccc(C4CCCNC4)cc3)nc12 (configuration not stated) [Niraparib (MK-4827) tosylate]	1.37
CC(C)OC(=O)CCC/C=C\CC1C(O)CC(O)C1CCC(O)CCc1ccccc1 (configuration not stated) [Latanoprost]	0.66
O=c1[nH]cc(F)c(=O)[nH]1 [Fluorouracil (5-Fluoracil, 5-FU)]	0.976
CC1(C(=O)O)CCC2(C)CCC3(C)C(=CC(=O)C4C5(C)CCC(OC6OC(C(=O)O)C(O)C(O)C6OC6OC(C(=O)O)C(O)C(O)C6O)C(C)(C)C5CCC43C)C2C1.N.N (configuration not stated) [Diammonium Glycyrrhizinate]	0.99
CC1(C)CCC(CN2CCN(c3ccc(C(=O)NS(=O)(=O)c4ccc(NCC5CCOCC5)c([N+](=O)[O-])c4)c(Oc4cnc5[nH]ccc5c4)c3)CC2)=C(c2ccc(Cl)cc2)C1 [Venetoclax (ABT-199, GDC-0199)]	0.63
CCN(CC)Cc1cc(Nc2ccnc3cc(Cl)ccc23)ccc1O.Cl.Cl [Amodiaquine hydrochloride]	1.13
CCN(C(=O)c1c(O)c2c(Cl)cccc2n(C)c1=O)c1ccccc1 [Laquinimod]	1.04
O=C(c1ccc(OCCN2CCCCC2)cc1)c1c(-c2ccc(O)cc2)sc2cc(O)ccc12 [Raloxifene]	1.03

Same assay, conditions: 3 µM; irradiation: 8 Gy/4 fr

SMILES	ISRE reporter
CCC(=O)OCC(=O)C1(OC(=O)CC)C(C)CC2C3CCC4=CC(=O)C=CC4(C)C3(Cl)C(O)CC21C (configuration not stated) [Beclomethasone dipropionate]	0.0581
CC(=O)Nc1ccc(OC(=O)c2ccccc2OC(C)=O)cc1 [Benorylate]	0.765
Nc1ccccc1NC(=O)c1ccc(CNC(=O)OCc2cccnc2)cc1 [Entinostat (MS-275)]	0.731
COc1cc(N2CCC(N3CCN(C)CC3)CC2)ccc1Nc1ncc(Cl)c(Nc2ccccc2P(C)(C)=O)n1	0.994
Cc1c(-c2ccc(-c3ccccc3F)cc2)nc2ccc(F)cc2c1C(=O)O [Brequinar]	0.757
CCC1/C=C(\C)CC(C)CC(OC)C2OC(O)(C(=O)C(=O)N3CCCCC3C(=O)OC(/C(C)=C/C3CCC(Cl)C(OC)C3)C(C)C(O)CC1=O)C(C)CC2OC (configuration not stated) [Pimecrolimus]	1.37
COC(=O)/C=C/C(=O)OC [Dimethyl Fumarate]	0.574
Cc1cc(Nc2ncc(Cl)c(Nc3ccccc3S(=O)(=O)C(C)C)n2)c(OC(C)C)cc1C1CCNCC1 [Ceritinib (LDK378)]	1.1
Nc1nc(Cl)nc2c1ncn2C1CC(O)C(CO)O1 (configuration not stated) [Cladribine]	0.681
CC12CCC(=O)C=C1CCC1C2C(O)CC2(C)C1CCC2(O)C(=O)CO (configuration not stated) [Hydrocortisone]	0.0694
Cc1coc2c1C(=O)C(=O)c1c-2ccc2c(C)cccc12 [Tanshinone I]	0.941
Cn1cnc([N+](=O)[O-])c1Sc1ncnc2nc[nH]c12 [Azathioprine]	0.831
O=c1ccc2cc3ccoc3cc2o1 [Psoralen]	0.775
CCC(=O)NS(=O)(=O)c1ccc(-c2c(-c3ccccc3)noc2C)cc1 [Parecoxib]	0.853
COc1ccc(-c2ccc3cc(C(=O)O)ccc3c2)cc1C12CC3CC(CC(C3)C1)C2 [Adapalene]	0.979
CCC(C(=O)O)c1ccc(N2Cc3ccccc3C2=O)cc1 (configuration not stated) [Indobufen]	0.945
COC1CC2CCC(C)C(O)(O2)C(=O)C(=O)N2CCCCC2C(=O)OC(C(C)CC2CCC(O)C(OC)C2)CC(=O)C(C)/C=C(\C)C(O)C(OC)C(=O)C(C)CC(C)/C=C/C=C/C=C/1C (configuration not stated) [Rapamycin (Sirolimus)]	0.925
COc1ccc(C2CNC(=O)C2)cc1OC1CCCC1 (configuration not stated) [Rolipram]	0.849
Nc1nc(N)c2nc(-c3ccccc3)c(N)nc2n1 [Triamterene]	0.806
CN(C)CCN1C(=O)c2cccc3cc(N)cc(c23)C1=O [Amonafide]	0.494

SMILES	ISRE reporter
CN1CCCC1CCOC(C)(c1ccccc1)c1ccc(Cl)cc1.O=C(O)/C=C/C(=O)O (configuration not stated) [Clemastine Fumarate]	1.29
CC12C=CC(=O)C=C1CCC1C3CC(O)C(O)(C(=O)CO)C3(C)CC(O)C12F (configuration not stated) [Triamcinolone]	0.0547
CC1CC2C3CCC4=CC(=O)C=CC4(C)C3C(=O)CC2(C)C1(O)C(=O)CO (configuration not stated) [Meprednisone]	0.617
CCS(=O)(=O)O.COC(=O)c1ccc2c(c1)NC(=O)/C2=C(\Nc1ccc(N(C)C(=O)CN2CCN(C)CC2)cc1)c1ccccc1 [Nintedanib Ethanesulfonate Salt]	1.35
CCCCCCCCCCCCCCCCCCOP(=O)([O-])OC1CC[N+](C)(C)CC1 [Perifosine (KRX-0401)]	0.681
CCC1(O)CC2CN(CCc3c([nH]c4ccccc34)C(C(=O)OC)(c3cc4c(cc3OC)N(C=O)C3C(O)(C(=O)OC)C(OC(C)=O)C5(CC)C=CCN6CCC43C65)C2)C1 (configuration not stated) [Vincristine]	0.0863
Cl.Nc1ccn(C2OC(CO)C(O)C2O)c(=O)n1 (configuration not stated) [Cytarabine hydrochloride]	0.543
CC(=O)OC(C)C(C)C(=O)OCC12C3CC4(C)C(=CCC5C6(C)CCC(OC7OC(C(=O)[O][Na])C(OC8OC(CO)C(O)C(O)C8O)C(O)C7OC7OCC(O)C(O)C7O)C(C)(CO)C6CCC54C)C1CC(C)(C)C(O3)C2O (configuration not stated) [Sodium Aescinate]	1.12
CCC(=O)OC1(C(=O)SCF)C(C)CC2C3CC(F)C4=CC(=O)C=CC4(C)C3(F)C(O)CC21C (configuration not stated) [Fluticasone propionate]	0.0453
CCCCC1(COC(=O)CCC(=O)O)C(=O)N(c2ccccc2)N(c2ccccc2)C1=O [Suxibuzone]	1.04
CS(=O)(=O)Nc1cc2occ(NC=O)c(=O)c2cc1Oc1ccccc1 [Iguratimod]	0.487
COc1cc2nccc(Oc3ccc(NC(=O)Nc4cc(C)on4)c(Cl)c3)c2cc1OC [Tivozanib (AV-951)]	0.285
Cc1ccc(S(=O)(=O)O)cc1.NC(=O)c1cccc2cn(-c3ccc(C4CCCNC4)cc3)nc12 (configuration not stated) [Niraparib (MK-4827) tosylate]	0.692
CC(C)OC(=O)CCC/C=C\CC1C(O)CC(O)C1CCC(O)CCc1ccccc1 (configuration not stated) [Latanoprost]	0.588
O=c1[nH]cc(F)c(=O)[nH]1 [Fluorouracil (5-Fluoracil, 5-FU)]	0.906
CC1(C(=O)O)CCC2(C)CCC3(C)C(=CC(=O)C4C5(C)CCC(OC6OC(C(=O)O)C(O)C(O)C6OC6OC(C(=O)O)C(O)C(O)C6O)C(C)(C)C5CCC43C)C2C1.N.N (configuration not stated) [Diammonium Glycyrrhizinate]	0.884
CC1(C)CCC(CN2CCN(c3ccc(C(=O)NS(=O)(=O)c4ccc(NCC5CCOCC5)c([N+](=O)[O-])c4)c(Oc4cnc5[nH]ccc5c4)c3)CC2)=C(c2ccc(Cl)cc2)C1 [Venetoclax (ABT-199, GDC-0199)]	0.307
CCN(CC)Cc1cc(Nc2ccnc3cc(Cl)ccc23)ccc1O.Cl.Cl [Amodiaquine hydrochloride]	0.877
CCN(C(=O)c1c(O)c2c(Cl)cccc2n(C)c1=O)c1ccccc1 [Laquinimod]	0.857
O=C(c1ccc(OCCN2CCCCC2)cc1)c1c(-c2ccc(O)cc2)sc2cc(O)ccc12 [Raloxifene]	1.13
